The other results are listed elsewhere or left out. These are noisy estimates, calculated here from bound and input reads.
What follows are sequences tested against T1, Pho4 (S. cerevisiae) (UniProt P07270) (assay: relative binding free energy (BET-seq); higher = weaker binding). Conditions: reference: library average.
T1 sequence: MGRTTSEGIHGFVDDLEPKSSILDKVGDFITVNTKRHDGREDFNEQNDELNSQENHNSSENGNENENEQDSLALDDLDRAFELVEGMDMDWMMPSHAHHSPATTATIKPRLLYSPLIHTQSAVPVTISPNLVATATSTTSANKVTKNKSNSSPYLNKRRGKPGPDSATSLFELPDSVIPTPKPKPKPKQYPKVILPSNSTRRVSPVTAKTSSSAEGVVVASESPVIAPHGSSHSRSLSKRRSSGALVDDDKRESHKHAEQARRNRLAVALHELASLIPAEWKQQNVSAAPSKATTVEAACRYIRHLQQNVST

Sequence | relative binding free energy
AATAGCACGTGTGCAT | -0.08 kcal/mol
TGCAGCACGTGCGTGG | -0.18 kcal/mol
TAGTTCACGTGATTTT | 0.46 kcal/mol
TAGAGCACGTGGTGTA | -0.26 kcal/mol
TCGCGCACGTGTGGTA | 0.03 kcal/mol
ATGGCCACGTGGCTGG | -0.2 kcal/mol
AGTCTCACGTGGCGGG | 0.02 kcal/mol
GTCGGCACGTGCGTGG | -0.11 kcal/mol
TAGAGCACGTGTTGGA | -0.15 kcal/mol
ATTTTCACGTGAATGT | 0.41 kcal/mol
AGACGCACGTGTGGTG | -0.16 kcal/mol
AAATTCACGTGTGGAG | 0.18 kcal/mol
AGTGCCACGTGGGCAG | -0.25 kcal/mol
GTAGGCACGTGAATTT | 0.2 kcal/mol
TGGTCCACGTGATATG | 0.11 kcal/mol
GAAGGCACGTGCGGTA | -0.19 kcal/mol
AGGTTCACGTGGTGAA | 0.12 kcal/mol
AATCTCACGTGTGGGA | 0.21 kcal/mol
GTGGTCACGTGAATGT | 0.43 kcal/mol
GTGTCCACGTGTATAG | 0.19 kcal/mol
GCGGGCACGTGGTTGG | -0.08 kcal/mol
GAGTGCACGTGCGATT | 0.02 kcal/mol
GAAGACACGTGTGGGG | 0.13 kcal/mol

Sequence | relative binding free energy
GCTTGCACGTGGAGTG | -0.12 kcal/mol
GTTGTCACGTGTTAGA | 0.14 kcal/mol
AGGGGCACGTGTGATA | 0.03 kcal/mol
GTGGACACGTGGGGCT | -0.08 kcal/mol
GGTGACACGTGTTTTT | 0.05 kcal/mol
GTTAACACGTGGGAAG | 0.08 kcal/mol
AGTGTCACGTGTTAGC | 0.19 kcal/mol
TGCATCACGTGGCGTT | 0.15 kcal/mol
TGCGACACGTGATTTG | 0.16 kcal/mol
GCTGACACGTGAGGAT | 0.44 kcal/mol
AGCCGCACGTGGGTTT | -0.17 kcal/mol
GGGACCACGTGGGTGG | -0.22 kcal/mol
TACTTCACGTGTGGCT | 0.42 kcal/mol
TGCGTCACGTGCAGGA | 0.01 kcal/mol
CGATGCACGTGTGGAG | 0.03 kcal/mol
GTTGTCACGTGTTTCG | 0.09 kcal/mol
TATGTCACGTGTTTTG | 0.1 kcal/mol
GTGGTCACGTGGTGCC | 0.08 kcal/mol
GAAATCACGTGTGTAG | 0.11 kcal/mol
TGAGGCACGTGGACGT | -0.1 kcal/mol
GTCTTCACGTGAGTTT | 0.44 kcal/mol
TCATGCACGTGTGGTA | 0.11 kcal/mol
TCTCGCACGTGGTGTT | -0.2 kcal/mol

Sequence | relative binding free energy
CTGGTCACGTGAAATT | 0.31 kcal/mol
GTGTGCACGTGGGGTA | -0.12 kcal/mol
GTGAGCACGTGTAAAG | 0.05 kcal/mol
TAGCACACGTGAGGGG | 0.25 kcal/mol
GAATTCACGTGTGTAT | 0.34 kcal/mol
TGGGTCACGTGTGGGT | 0.2 kcal/mol
GAGATCACGTGGGCTG | 0.1 kcal/mol
TACTTCACGTGTAGGG | 0.2 kcal/mol
AAGTGCACGTGTGAGA | 0.05 kcal/mol
CGTCGCACGTGCGTGG | -0.17 kcal/mol
CGGGCCACGTGGGTGT | -0.24 kcal/mol
GGGTTCACGTGGGGTG | 0.3 kcal/mol
TGGGTCACGTGCTTAT | 0.24 kcal/mol
TGGACCACGTGTTAGG | -0.02 kcal/mol
TAGGACACGTGAGGTC | 0.23 kcal/mol
CGGTGCACGTGACGGG | 0.21 kcal/mol
GGCGGCACGTGGTTCG | -0.04 kcal/mol
GCATGCACGTGGGAGT | -0.19 kcal/mol
TTGTGCACGTGAGGCG | 0.12 kcal/mol
TATAACACGTGAGGTT | 0.26 kcal/mol
ATATTCACGTGATGAA | 0.45 kcal/mol
GTTGGCACGTGAGGCT | 0.09 kcal/mol
TCGGTCACGTGTTTAA | 0.06 kcal/mol

Sequence | relative binding free energy
TGGGTCACGTGCAGCG | 0.13 kcal/mol
CAGGACACGTGTTGGG | -0.06 kcal/mol
GATTTCACGTGAGATG | 0.36 kcal/mol
GCTGGCACGTGATTGG | 0.06 kcal/mol
GTTAGCACGTGTTGAA | -0.04 kcal/mol
CGTGTCACGTGTGCTT | 0.04 kcal/mol
GGCCGCACGTGGGTGG | -0.16 kcal/mol
CGATGCACGTGGTGAA | -0.01 kcal/mol
TGGTACACGTGCAAGG | -0.11 kcal/mol
TCATGCACGTGGATGT | -0.09 kcal/mol
TTTGGCACGTGTACTG | -0.05 kcal/mol
CATGGCACGTGCGGTT | -0.13 kcal/mol
GGTGGCACGTGTAGCG | 0.03 kcal/mol
GGGGACACGTGAAATG | 0.27 kcal/mol
GTCTGCACGTGATTAG | 0.22 kcal/mol
TCAAGCACGTGTAGGT | -0.18 kcal/mol
GTGCGCACGTGGAGTT | -0.01 kcal/mol
TAAATCACGTGTTGCG | 0.23 kcal/mol
CGTGACACGTGTGGGT | 0.01 kcal/mol
TAGAACACGTGTCGGT | 0.04 kcal/mol
CTGGTCACGTGTGGCA | 0.24 kcal/mol
GTCGGCACGTGAGTGT | 0.15 kcal/mol
ATGAACACGTGCGGTG | -0.04 kcal/mol

Sequence | relative binding free energy
CAGGGCACGTGTGGTC | -0.14 kcal/mol
CTATTCACGTGTGTAT | 0.21 kcal/mol
AAGTGCACGTGCTGGG | 0.03 kcal/mol
TATTGCACGTGACTGT | 0.2 kcal/mol
GGCGGCACGTGCGGTG | -0.07 kcal/mol
AAGGGCACGTGGTGTG | -0.24 kcal/mol
AGTTTCACGTGGTGTA | 0.19 kcal/mol
TAGTGCACGTGCGTTG | -0.16 kcal/mol
TATTGCACGTGCAAGT | -0.03 kcal/mol
GTTCACACGTGCTGGG | 0.09 kcal/mol
CTATGCACGTGGGTCT | -0.2 kcal/mol
GGGGTCACGTGCCGCG | -0.03 kcal/mol
GTTGTCACGTGGAAAA | 0.1 kcal/mol
TGGTACACGTGGAGGA | 0.08 kcal/mol
ATGGACACGTGAGGGG | 0.17 kcal/mol
GTGGTCACGTGTAGGT | 0.15 kcal/mol
AGTTCCACGTGGGGGA | -0.06 kcal/mol
TCTTACACGTGGGGCG | 0.01 kcal/mol
GGAGGCACGTGAAGAG | 0.22 kcal/mol
TTTTACACGTGGGAGT | 0.16 kcal/mol
GTGCTCACGTGTGTAG | 0.24 kcal/mol
TAGAGCACGTGGTTTT | -0.13 kcal/mol
AAGCGCACGTGTAATG | 0.22 kcal/mol
